According to the supplement of paper PMC8728848:
The other results are listed elsewhere or left out.

How the values were obtained:
Experiment in all cases: glycan array binding signal (z-score within array); higher = stronger binding
Details in all cases: glycan notation: IUPAC condensed, linker removed
[1] = target: Gal(b1-4)GlcNAc(b1-3)Gal(b1-4)GlcNAc(b1-3)Gal(b1-4)GlcNAc
In short: (§1)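 Arrays were curated from the Consortium for Functional Glycomics database, 3228 in total, and kept only where the protein sequence was available. Binding is expressed as a within-array Z-score. This score was averaged across arrays of the same protein sequence at different concentrations or buffers and across linkers, and negative values can be read as non-binding.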

[2] = target: Gal(b1-4)GlcNAc(b1-3)Gal(b1-4)[Fuc(a1-3)]GlcNAc(b1-3)Gal(b1-4)[Fuc(a1-3)]GlcNAc
In short: as §1

[3] = target: Gal(b1-4)GlcNAc(b1-3)GalNAc
In short: as §1

[4] = target: Gal(b1-4)GlcNAc(b1-3)[Gal(b1-4)GlcNAc(b1-6)]Gal(b1-4)GlcNAc
In short: as §1

[5] = target: Gal(b1-4)GlcNAc(b1-3)[GlcNAc(b1-6)]Gal(b1-4)GlcNAc
In short: as §1

[6] = target: Gal(b1-4)GlcNAc(b1-6)Gal(b1-4)GlcNAc
In short: as §1

[7] = target: Gal(b1-4)GlcNAc(b1-6)Gal(b1-4)GlcNAc(b1-6)GalNAc
In short: as §1

[8] = target: Gal(b1-4)GlcNAc(b1-6)GalNAc
In short: as §1

[9] = target: Gal(b1-4)GlcNAc(b1-6)[Gal(b1-3)]GalNAc
In short: as §1

Gal3S(b1-3)GalNAc = target: Gal3S(b1-3)GalNAc
In short: as §1

Gal3S(b1-3)GlcNAc = target: Gal3S(b1-3)GlcNAc
In short: as §1

[10] = target: Gal3S(b1-3)[Fuc(a1-4)]GlcNAc
In short: as §1

Gal3S(b1-4)Glc = target: Gal3S(b1-4)Glc
In short: as §1

Gal3S(b1-4)Glc6S = target: Gal3S(b1-4)Glc6S
In short: as §1

Gal3S(b1-4)GlcNAc = target: Gal3S(b1-4)GlcNAc
In short: as §1

Gal3S(b1-4)GlcNAc6S = target: Gal3S(b1-4)GlcNAc6S
In short: as §1

[11] = target: Gal3S(b1-4)[Fuc(a1-3)]Glc
In short: as §1

Gal3S4S(b1-4)GlcNAc = target: Gal3S4S(b1-4)GlcNAc
In short: as §1

Gal3S6S(b1-4)GlcNAc = target: Gal3S6S(b1-4)GlcNAc
In short: as §1

Gal3S6S(b1-4)GlcNAc6S = target: Gal3S6S(b1-4)GlcNAc6S
In short: as §1

Gal4S(b1-4)GlcNAc = target: Gal4S(b1-4)GlcNAc
In short: as §1

Gal4S6S(b1-4)GlcNAc = target: Gal4S6S(b1-4)GlcNAc
In short: as §1

Gal6S(b1-4)Glc = target: Gal6S(b1-4)Glc
In short: as §1

Gal6S(b1-4)Glc6S = target: Gal6S(b1-4)Glc6S
In short: as §1

Gal6S(b1-4)GlcNAc = target: Gal6S(b1-4)GlcNAc
In short: as §1

Gal6S(b1-4)GlcNAc6S = target: Gal6S(b1-4)GlcNAc6S
In short: as §1

GalNAc(a1-3)Gal = target: GalNAc(a1-3)Gal
In short: as §1

GalNAc(a1-3)GalNAc = target: GalNAc(a1-3)GalNAc
In short: as §1

GalNAc(b1-3)Gal = target: GalNAc(b1-3)Gal
In short: as §1

[12] = target: GalNAc(b1-3)Gal(a1-4)Gal(b1-4)GlcNAc
In short: as §1

GalNAc(b1-3)GalNAc = target: GalNAc(b1-3)GalNAc
In short: as §1

GalNAc(b1-4)GlcNAc = target: GalNAc(b1-4)GlcNAc
In short: as §1

Glc(a1-4)Glc = target: Glc(a1-4)Glc
In short: as §1

Glc(a1-6)Glc(a1-6)Glc = target: Glc(a1-6)Glc(a1-6)Glc
In short: as §1

Glc(b1-4)Glc = target: Glc(b1-4)Glc
In short: as §1

Glc(b1-6)Glc = target: Glc(b1-6)Glc
In short: as §1

GlcA(b1-3)Gal = target: GlcA(b1-3)Gal
In short: as §1

GlcA(b1-3)GlcNAc = target: GlcA(b1-3)GlcNAc
In short: as §1

GlcA(b1-6)Gal = target: GlcA(b1-6)Gal
In short: as §1

[13] = target: GlcNAc(a1-3)Gal(b1-4)GlcNAc
In short: as §1

[14] = target: GlcNAc(a1-6)Gal(b1-4)GlcNAc
In short: as §1

[15] = target: GlcNAc(b1-2)Gal(b1-3)GalNAc
In short: as §1

[16] = target: GlcNAc(b1-2)Man(a1-3)[GlcNAc(b1-2)Man(a1-6)]Man(b1-4)GlcNAc(b1-4)GlcNAc
In short: as §1

GlcNAc(b1-3)Gal = target: GlcNAc(b1-3)Gal
In short: as §1

[17] = target: GlcNAc(b1-3)Gal(b1-3)GalNAc
In short: as §1

GlcNAc(b1-3)Gal(b1-4)Glc = target: GlcNAc(b1-3)Gal(b1-4)Glc
In short: as §1

[18] = target: GlcNAc(b1-3)Gal(b1-4)GlcNAc
In short: as §1

[19] = target: GlcNAc(b1-3)Gal(b1-4)GlcNAc(b1-3)Gal(b1-4)GlcNAc
In short: as §1

GlcNAc(b1-3)GalNAc = target: GlcNAc(b1-3)GalNAc
In short: as §1

GlcNAc(b1-3)Man = target: GlcNAc(b1-3)Man
In short: as §1

[20] = target: GlcNAc(b1-3)[GlcNAc(b1-4)][GlcNAc(b1-6)]GlcNAc
In short: as §1

[21] = target: GlcNAc(b1-3)[GlcNAc(b1-6)]Gal(b1-4)GlcNAc
In short: as §1

[22] = target: GlcNAc(b1-3)[GlcNAc(b1-6)]GalNAc
In short: as §1

[23] = target: GlcNAc(b1-4)Gal(b1-4)GlcNAc
In short: as §1

GlcNAc(b1-4)GlcNAc = target: GlcNAc(b1-4)GlcNAc
In short: as §1

[24] = target: GlcNAc(b1-4)GlcNAc(b1-4)GlcNAc
In short: as §1

[25] = target: GlcNAc(b1-4)GlcNAc(b1-4)GlcNAc(b1-4)GlcNAc(b1-4)GlcNAc
In short: as §1

[26] = target: GlcNAc(b1-4)GlcNAc(b1-4)GlcNAc(b1-4)GlcNAc(b1-4)GlcNAc(b1-4)GlcNAc
In short: as §1

[27] = target: GlcNAc(b1-4)[GlcNAc(b1-6)]GalNAc
In short: as §1

[28] = target: GlcNAc(b1-6)Gal(b1-4)GlcNAc
In short: as §1

B1: MCI4 (Toxoplasma gondii), Q9XZH7 (protein)
chain: MRASLPVHLVVCTQLSAVWFGVAKAHGGHRLEPHVPGFLQGFTDITPAGDDVSANVTSSEPAKLDLSCVHSDNKGSRAPTIGEPVPDVSLEQCAAQCKAVDGCTHFTYNDDSKMCHVKEGKPDLYDLTGGKTASRSCDRSCFEQHVSYEGAPDVMTAMVTSQSADCQAACAADPSCEIFTYNEHDQKCTFKGRGFSAFKERGVLGVTSGPKQFCDEGGKLTQEEMEDQISGCIQLSDVGSMTADLEEPMEADSVGACMERCRCDGRCTHFTFNDNTRMCYLKGDKMQLYSSPGDRTGPKSCDSSCFSNGVSYVDDPATDVETVFEISHPIYCQVICAANPLCTVFQWYASEAKCVVKRKGFYKHRKTGVTGVTVGPREFCDFGGSIRDREEADAVGSDDGLNAEATMANSPDFHDEVECVHTGNIGSKAQTIGEVKRASSLSECRARCQAEKECSHYTYNVKSGLCYPKRGKPQFYKYLGDMTGSRTCDTSCLRRGVDYSQGPEVGKPWYSTLPTDCQVACDAEDACLVFTWDSATSRCYLIGSGFSAHRRNDVDGVVSGPYTFCDNGENLQVLEAKDTE
With B1 the “glycan array binding signal (z-score)” value [1] was -0.215, the “glycan array binding signal (z-score)” value [2] was -0.212 and the “glycan array binding signal (z-score)” value [3] was -0.182. For the same binder, the “glycan array binding signal (z-score)” value [4] was 7.5, the “glycan array binding signal (z-score)” value [5] was -0.214 and the “glycan array binding signal (z-score)” value [6] was -0.212. For the same binder, the “glycan array binding signal (z-score)” value [7] was -0.204, the “glycan array binding signal (z-score)” value [8] was -0.201 and the “glycan array binding signal (z-score)” value [9] was 5.16. For the same binder, the “glycan array binding signal (z-score)” value (Gal3S(b1-3)GalNAc) was -0.192, the “glycan array binding signal (z-score)” value (Gal3S(b1-3)GlcNAc) was -0.22 and the “glycan array binding signal (z-score)” value [10] was -0.206. The “glycan array binding signal (z-score)” value (Gal3S(b1-4)Glc) was -0.168, the “glycan array binding signal (z-score)” value (Gal3S(b1-4)Glc6S) was -0.217 and the “glycan array binding signal (z-score)” value (Gal3S(b1-4)GlcNAc) was -0.207. The “glycan array binding signal (z-score)” value (Gal3S(b1-4)GlcNAc6S) was -0.193, the “glycan array binding signal (z-score)” value [11] was -0.213 and the “glycan array binding signal (z-score)” value (Gal3S4S(b1-4)GlcNAc) was -0.217. For the same binder, the “glycan array binding signal (z-score)” value (Gal3S6S(b1-4)GlcNAc) was -0.217, the “glycan array binding signal (z-score)” value (Gal3S6S(b1-4)GlcNAc6S) was -0.228 and the “glycan array binding signal (z-score)” value (Gal4S(b1-4)GlcNAc) was -0.201. The “glycan array binding signal (z-score)” value (Gal4S6S(b1-4)GlcNAc) was -0.165, the “glycan array binding signal (z-score)” value (Gal6S(b1-4)Glc) was -0.181 and the “glycan array binding signal (z-score)” value (Gal6S(b1-4)Glc6S) was -0.206. For the same binder, the “glycan array binding signal (z-score)” value (Gal6S(b1-4)GlcNAc) was -0.198, the “glycan array binding signal (z-score)” value (Gal6S(b1-4)GlcNAc6S) was -0.205 and the “glycan array binding signal (z-score)” value (GalNAc(a1-3)Gal) was -0.141. The “glycan array binding signal (z-score)” value (GalNAc(a1-3)GalNAc) was -0.226, the “glycan array binding signal (z-score)” value (GalNAc(b1-3)Gal) was -0.201 and the “glycan array binding signal (z-score)” value [12] was -0.194. For the same binder, the “glycan array binding signal (z-score)” value (GalNAc(b1-3)GalNAc) was -0.2, the “glycan array binding signal (z-score)” value (GalNAc(b1-4)GlcNAc) was -0.19 and the “glycan array binding signal (z-score)” value (Glc(a1-4)Glc) was -0.2. The “glycan array binding signal (z-score)” value (Glc(a1-6)Glc(a1-6)Glc) was -0.212, the “glycan array binding signal (z-score)” value (Glc(b1-4)Glc) was -0.181 and the “glycan array binding signal (z-score)” value (Glc(b1-6)Glc) was -0.199. The “glycan array binding signal (z-score)” value (GlcA(b1-3)Gal) was -0.219, the “glycan array binding signal (z-score)” value (GlcA(b1-3)GlcNAc) was -0.189 and the “glycan array binding signal (z-score)” value (GlcA(b1-6)Gal) was -0.211. For the same binder, the “glycan array binding signal (z-score)” value [13] was -0.123, the “glycan array binding signal (z-score)” value [14] was -0.203 and the “glycan array binding signal (z-score)” value [15] was -0.219. The “glycan array binding signal (z-score)” value [16] was -0.224, the “glycan array binding signal (z-score)” value (GlcNAc(b1-3)Gal) was -0.21 and the “glycan array binding signal (z-score)” value [17] was -0.019. For the same binder, the “glycan array binding signal (z-score)” value (GlcNAc(b1-3)Gal(b1-4)Glc) was -0.184, the “glycan array binding signal (z-score)” value [18] was -0.196 and the “glycan array binding signal (z-score)” value [19] was -0.216. For the same binder, the “glycan array binding signal (z-score)” value (GlcNAc(b1-3)GalNAc) was -0.203, the “glycan array binding signal (z-score)” value (GlcNAc(b1-3)Man) was -0.207 and the “glycan array binding signal (z-score)” value [20] was -0.202. For the same binder, the “glycan array binding signal (z-score)” value [21] was -0.185, the “glycan array binding signal (z-score)” value [22] was -0.215 and the “glycan array binding signal (z-score)” value [23] was -0.228. The “glycan array binding signal (z-score)” value (GlcNAc(b1-4)GlcNAc) was -0.217, the “glycan array binding signal (z-score)” value [24] was -0.184 and the “glycan array binding signal (z-score)” value [25] was -0.198. The “glycan array binding signal (z-score)” value [26] was -0.215, the “glycan array binding signal (z-score)” value [27] was -0.206 and the “glycan array binding signal (z-score)” value [28] was -0.196.
